Results taken from PubChem BioAssay AID504374 (National Center for Advancing Translational Sciences (NCATS), 2011).
Out of some 1,500 compounds screened, about 100 (6.7%) were called active. Roughly 7% stayed inconclusive and do not appear here. Calls come from the whole dose curve; as a rule, active = well fitted inhibition curve with a large enough effect; inconclusive = small, poorly fitted or top-dose-only effect, or effect the other way; inactive = flat fitted curve, though single readings scatter. Some of the results follow.

The molecules below were run against Runt-related transcription factor 1 (Homo sapiens) + Core-binding factor subunit beta (Homo sapiens) (UniProt Q01196+Q13951) (assay: qHTS Assay for Compounds Blocking the Interaction Between CBF-beta and RUNX1 for the Treatment of Acute Myeloid Leukemia: Hit Validation). Conditions: AlphaScreen CBFb-His/RUNX1-biotin binding; series mostly up to 59.8 µM; activity, negative = inhibition: at the top concentration.
Sequence of UniProt Q01196 (Q01196 whole entry, looked up): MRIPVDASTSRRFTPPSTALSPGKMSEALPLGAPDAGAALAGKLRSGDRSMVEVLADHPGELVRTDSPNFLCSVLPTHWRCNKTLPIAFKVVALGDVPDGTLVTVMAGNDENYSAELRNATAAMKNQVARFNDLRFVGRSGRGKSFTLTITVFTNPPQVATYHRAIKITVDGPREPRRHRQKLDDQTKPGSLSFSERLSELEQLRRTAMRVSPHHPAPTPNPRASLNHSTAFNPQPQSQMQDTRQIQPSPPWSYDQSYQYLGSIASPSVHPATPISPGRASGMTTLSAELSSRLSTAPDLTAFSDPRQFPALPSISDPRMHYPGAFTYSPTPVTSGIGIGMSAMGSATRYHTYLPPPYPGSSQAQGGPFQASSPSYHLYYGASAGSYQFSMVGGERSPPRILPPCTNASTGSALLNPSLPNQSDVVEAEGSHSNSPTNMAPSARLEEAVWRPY
Sequence of UniProt Q01196 (Q13951 whole entry, looked up): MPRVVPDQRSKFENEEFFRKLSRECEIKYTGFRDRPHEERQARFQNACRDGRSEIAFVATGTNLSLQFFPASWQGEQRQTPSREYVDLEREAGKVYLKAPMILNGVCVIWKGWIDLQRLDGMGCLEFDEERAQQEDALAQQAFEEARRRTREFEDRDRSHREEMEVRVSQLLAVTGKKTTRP
In short: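 AlphaScreen proximity assay: His-tagged CBF-beta and biotinylated RUNX1 (30 nM each) preincubated 20 min, then compound 15 min, then nickel and streptavidin beads 90 min, all at room temperature; signal read at […]em 440 nm.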
% is set by controls: 0 for no effect and ±100 for the full control effect; potency is the fitted concentration of half-maximal effect.
Note: nearly all actives have a fitted effect of over 60% in size.

activity, negative = inhibition, inactive:
Cn1c2c(c(=O)n(C)c1=O)C(c1cccc(F)c1)C(C#N)=C(N)O2 (configuration not stated) -0.0745%
COc1cc(C)nc(NC(=S)N(C)C(=O)c2ccccc2)n1 6.54%
OCCNC(=S)NCc1ccccc1 1.83%
CSc1nc2cc(S(=O)(=O)N3CCCCC3)ccc2s1 -1.3%
CN(CC(O)CN1CCOCC1)S(=O)(=O)O (configuration not stated) 3.07%
CC1(C)Cc2nc(-c3ccccc3)nc(SCC(O)CO)c2CO1 (configuration not stated) 3.48%
O=C(CN1C(=O)NC2(CCCCC2)C1=O)Nc1cccc(S(=O)(=O)N2CCOCC2)c1 2.23%
Cc1cc([N+](=O)[O-])nn1Cc1ccc(C(=O)N/N=C/c2ccc(N(C)C)cc2)cc1 -10.8%
CCOC(=O)c1ccc(N2CCCCC2)c(NS(=O)(=O)c2cccc(C(F)(F)F)c2)c1 -3.37%
N/C(CC1CC1(Cl)Cl)=N\OC(=O)c1ccccc1 (configuration not stated) -12.5%
CC(=O)c1cnn(-c2ccc(Cl)cc2)c1C -5.58%
CCOC(=O)c1sc(NC(=O)CSC(=S)N2CCN(C)CC2)nc1C 4.77%
CC(=O)c1sc(C(C)(C)C)cc1NC(=O)/C=C/C(=O)O 4.93%
Cn1c(-c2ccc3ccccc3n2)[n+](C)c2ccccc21 -16.8%
Cc1[nH][nH]c(=O)c1C(c1ccc(N(C)C)c(Br)c1)c1c(C)[nH][nH]c1=O 0.798%
CCOC(=O)c1sc(=S)n(-c2ccc(OC)cc2)c1N -0.115%
CCOc1cc(/C=N/n2c(C)nnc2C)ccc1O -4.6%
COc1ccc(CNc2nc3nc(C)c(Cl)c(C)n3n2)cc1 8.57%
Cc1cc([N+](=O)[O-])nn1CC(=O)N/N=C/c1ccccc1F -9.4%
O=C(c1ccccc1)C1C(c2ccccc2)C1[N+](=O)[O-] (configuration not stated) 2%
CN(C)C(=S)Nc1ccc(Cl)cc1 -0.606%
CNC(=O)C(=O)N/N=C/c1cccnc1 26.6%
O=[N+]([O-])c1ccc2[nH]c(O)c(N=NC3CS(=O)(=O)CC3O)c2c1 (configuration not stated) -2.13%
O=C(NC1CCN(C(=O)c2cccs2)CC1)c1ccccc1 -0.26%
CCOc1ccc(N2CSC(=S)N(c3ccc(OCC)cc3)C2)cc1 -7.44%
O=C1/C(=C/c2ccsc2)N2CCC1CC2 6.1%
Cc1ccc(NC(=O)N2CCCn3c(SCC(=O)c4ccccc4)nnc32)cc1 -7.56%
CN(C)c1cccc(N(C)C)c1CNC(=O)C(C)(C)C -1.46%
COC(=O)c1cnc(NNS(=O)(=O)c2ccc(Cl)cc2)nc1C(F)(F)F -1.83%
CCOc1nsc(OCC)n1 -0.467%
CCOC(=O)c1cc(-c2ccccc2)nc2ccc(C)cc12 8.01%
Cc1cc(=O)[nH]c(N/N=C/c2ccc3c(c2)OCCO3)n1 -12.7%
COc1ccc(/C=N/NC(=O)CCn2cnc3ccccc32)cc1 -19%
O=C(N/N=C/c1ccc(Br)s1)c1ccco1 6.4%
CN1C(CC(=O)Nc2ccc(Cl)cc2Cl)c2ccccc2CC1(C)C (configuration not stated) -4.16%
Cc1cc(C(F)(F)F)cc(NNC(=O)NC(=O)c2ccccc2Cl)n1 3.45%
N/C(=N\OC(=O)c1cnn(-c2ccccc2)c1C(F)(F)F)c1cc(C(F)(F)F)cc(C(F)(F)F)c1 1.52%
O=C(N/N=C/c1ccccc1[N+](=O)[O-])c1cnccn1 -5.63%
Cc1nc(SCCO)c([N+](=O)[O-])[nH]1 -1.27%
CC(=O)c1c(C)nc(Nc2nc3ccccc3s2)nc1C 10.6%
Cc1oc(S(=O)(=O)N2CCOCC2)cc1C(=O)Nc1ccc(Cl)cc1 0.424%
COc1cc(/C=C2\SC(=S)N(NC(=O)c3ccncc3)C2=O)ccc1O 1.27%
CCCOc1ccc(CSC(=N)N)cc1C(=O)OC -9.01%
COc1ccccc1N1CC(C)(C)C(=O)N(C(=O)c2c(F)cccc2Cl)C1=S -4.1%
CC(C)CCCC(C)CCOC(=O)CN1CCCC1 (configuration not stated) 1.51%
O=C(O)c1cccc(COc2ccc3c(c2)CCC3)c1 -5.45%
COc1cc(C(=O)NC(=S)Nc2ccc3c(c2)OCO3)cc(OC)c1OC -1.22%
NC(=O)NN=C1C2CCCC1C(c1ccccc1)NC2c1ccccc1 (configuration not stated) -7%
Nc1nn(-c2ccccc2)c(N)c1N=Nc1cccc(F)c1 -18.7%
Cc1nn(C)c(C)c1NC(=O)c1ccccc1NC(=O)Nc1ccccc1 0.256%
COc1ccc2c(c1)[nH]c1c(N3CCSCC3)ncnc12 -8.99%
NC(=O)c1ccccc1OCC(=O)Nc1ccc(Cl)c(Cl)c1 5.37%
Clc1ccc(C2=Nn3c(Cn4nnc5ccccc54)nnc3SC2)cc1 -3.94%
COc1cccc(C(=O)NNC2=C(C(=O)C(F)(F)F)CCC2)c1 -9%
Cc1c(-c2ccc(Br)cc2)[n+](=O)c2c(n1[O-])CCCCC2 -3.63%
Cn1c(=O)c([N+](=O)[O-])c(NCc2ccc3c(c2)OCO3)c2ccccc21 2.42%
CCOC(=O)N1CCc2c(sc(NC(=O)CN3CCOCC3)c2C#N)C1 22.5%
Cc1ccc(S(=O)(=O)N2CCCCC2)cc1NC(=O)Cn1cnnn1 4.59%
CCN(CC)C(=S)SCC(=O)Nc1ncc2c(n1)CCCC2=O 5.8%
CCN(CC)S(=O)(=O)c1cccc(NC2=NCCCCC2)c1 11.5%
CN1CCN(C(=O)Nc2cccc(-c3ccccc3)c2)CC1 1.01%
CCOC(=O)/C(C#N)=C/Nc1ccccc1OC(F)(F)F -2.36%
Cc1ccc(NC(=S)N(C)C)cc1C -1.37%
Cc1ccc(C(=O)CSc2nnc(-c3snnc3C)n2C2CC2)cc1 5.91%
CCNC(=O)COC(=O)c1cc(S(=O)(=O)N2CCCCC2)ccc1C -10.6%
NCCc1ccc(O)c(O)c1 -10.7%
COC(=O)c1sccc1S(=O)(=O)Nc1ccc(C)cc1 6.17%
Cc1cc(NS(=O)(=O)c2ccc(NC(=O)CSc3nc4ncc(Cl)cc4[nH]3)cc2)nc(C)n1 2.6%
COc1ccc(OC)c(/C=N/NC(=O)c2cc3c(OC)cc(OC)cc3[nH]2)c1 6.82%
Cc1ccncc1C(N)=O -0.629%

Potency, active:
O=C(O)C[C@@H]1C(=O)O[C@@H]2C(COC(=O)c3cc(O)c(O)c(O)c3)O[C@@H](OC(=O)c3cc(O)c(O)c(O)c3)[C@@H](OC(=O)c3cc(O)c(O)c4c3[C@H]1[C@H](O)C(=O)O4)[C@H]2OC(=O)c1cc(O)c(O)c(O)c1 (some centres not stated) 31.6 nM
CCc1cccc(NC(=O)CCCCCC2NC(=O)NC2C)c1 (configuration not stated) 447 nM
